Z-score data for 107 molecules are collected here from PubChem BioAssay AID488969 (Vanderbilt High Throughput Screening Facility, 2010).

Values joined by “and” are separate entries in the source; they are usually repeats but may differ in a detail not shown here. Equal values may be shown once. Whole data set: some 110,000 compounds, median “z-score” near -0.1, cut for the highest 2% near 2. The list shows a part of the results. Active and inactive are the calls of the source.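 How the source made its calls: active means z-score in the third read window above 3 or below -3; inactive means the rest.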

The test has as its target Metabotropic glutamate receptor 8 (Rattus norvegicus) (UniProt P70579). Kind of test: mGluR8 Gi/Go-coupled signaling modulation – cell-based, rat, thallium flux, HTS, primary screen (AID 488969). As to conditions: HEK293 rat mGluR8, GIRK (G protein-gated inwardly rectifying potassium channel) thallium flux, FluoZin2; at 10 µM; stronger effect = higher value; submaximal glutamate (EC20) added with thallium.
UniProt P70579, sequence (P70579 whole entry, looked up): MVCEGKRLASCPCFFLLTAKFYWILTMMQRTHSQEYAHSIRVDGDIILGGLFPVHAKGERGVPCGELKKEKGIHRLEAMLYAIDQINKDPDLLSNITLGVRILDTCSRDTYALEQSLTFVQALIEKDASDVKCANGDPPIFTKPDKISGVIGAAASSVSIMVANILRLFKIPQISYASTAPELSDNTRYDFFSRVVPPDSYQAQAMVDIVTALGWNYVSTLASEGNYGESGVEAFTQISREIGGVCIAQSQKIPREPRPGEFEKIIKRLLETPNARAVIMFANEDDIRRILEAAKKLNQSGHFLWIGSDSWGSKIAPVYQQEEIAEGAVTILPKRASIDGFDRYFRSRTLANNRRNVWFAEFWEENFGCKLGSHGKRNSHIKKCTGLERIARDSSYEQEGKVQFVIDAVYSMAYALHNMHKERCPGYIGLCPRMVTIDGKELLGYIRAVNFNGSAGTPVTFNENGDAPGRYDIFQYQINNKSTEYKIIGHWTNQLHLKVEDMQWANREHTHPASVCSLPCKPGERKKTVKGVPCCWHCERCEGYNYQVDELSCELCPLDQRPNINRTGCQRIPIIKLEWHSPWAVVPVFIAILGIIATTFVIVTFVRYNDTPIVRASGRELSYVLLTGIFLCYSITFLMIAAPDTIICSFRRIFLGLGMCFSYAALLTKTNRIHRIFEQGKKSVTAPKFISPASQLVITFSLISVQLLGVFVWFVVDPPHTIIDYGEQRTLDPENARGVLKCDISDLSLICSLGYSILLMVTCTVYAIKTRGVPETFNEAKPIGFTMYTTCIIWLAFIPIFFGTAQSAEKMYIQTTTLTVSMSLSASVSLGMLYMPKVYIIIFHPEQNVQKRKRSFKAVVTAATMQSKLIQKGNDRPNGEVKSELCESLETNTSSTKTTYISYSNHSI
`Cc1cccnc1Sc1c([N+](=O)[O-])ncn1C`: the z-score is -0.142.
In the case of `N/C(=N\c1nc2ccccc2o1)NC(=O)C(Cc1ccccc1)N1C(=O)c2ccccc2C1=O` (configuration not stated) it was 0.579; in that of `Cc1ccnc(SCCn2c(N3CCOCC3)nc3c2c(=O)[nH]c(=O)n3C)n1`, -0.0964.
For `O=C(Nc1ccc(F)cc1)C1CCCN(S(=O)(=O)c2cccc3cccnc23)C1` (configuration not stated) the value was 0.729; for `C#CCn1c(=NC(=O)c2ccc(Br)s2)sc2cccc(OC)c21`, 0.256; for `Cc1cc(S(=O)(=O)NCC(c2ccccc2)c2ccccc2)ccc1-n1cnnn1`, 0.0424.
In the case of `O=C(Nc1cccs1)Nc1c(F)cc(F)cc1Br`, the z-score is 0.103.
Take `COc1ccc(C(=O)NC2c3ccccc3-c3ccccc32)cc1`: the z-score is -0.134.
In the case of `CCCN(CCC)C(=O)Cn1c(=O)n(CCCCC(=O)NC2CCCC2)c(=O)c2ccccc21` it was -0.542; in that of `COC(=O)c1[nH]c2ccccc2c1NC(=O)CNC1CCCCC1`, -0.161.
In the case of `CCOC(=O)C1(O)CC(C)=NN1C(=O)c1cccc(Cl)c1` (configuration not stated) it was -0.149; in that of `CC1CCCN(C(=O)c2ccc3nc[nH]c3c2)C1` (configuration not stated), -0.158; in that of `Cc1ccc(Cn2ccc(NC(=O)c3noc4c3CCc3ccccc3-4)n2)cc1`, -0.0547.
In the case of `Cc1cc(C)c2cc(C#N)c(NCCCNC(=O)CCC(=O)O)nc2c1` it was -0.00468; in that of `CC(Nc1c([N+](=O)[O-])c(=O)oc2ccccc12)C(Cl)c1ccccc1` (configuration not stated), -0.193; in that of `CCC(C)(C)n1nnnc1CN(Cc1ccco1)Cc1cc2cc3c(cc2[nH]c1=O)OCO3`, -0.127.
Regarding `COc1ccc(N2CCN(S(=O)(=O)c3ccc(C(=O)NC4CCCC4)cc3)CC2)cc1`, the z-score was -0.118.
For `O=C(NCc1ccco1)c1ccccc1-c1nc(-c2ccccc2)no1` the value was 0.0522.
In the case of `O=C1CCCC2=C1C(c1ccc3c(c1)OCO3)c1c([nH]n(-c3ccccc3)c1=O)N2` (configuration not stated) it was -0.455.
For `Cc1cccc(-n2ccnc2SCC(=O)Nc2nnc(C)s2)c1` the value was 0.337; for `COc1ccccc1OCC(=O)Nc1oc(-c2ccccc2)c(-c2ccccc2)c1C#N`, 2.87; for `O=C1OC(Cc2ccccn2)C(O)=C1C1=NCCCCN1` (configuration not stated), 0.614.
Consider `O=C(c1cccc(F)c1)N1CCC(O)(c2cccnc2)CC1`, for which the z-score is -0.862.
`COc1ccccc1NC(=O)Cn1nnc(-c2ccccc2NC(=O)c2cc3ccccc3oc2=O)n1`: the z-score was -0.267.
The molecule `CCOC(=O)N1CCN(S(=O)(=O)c2cccc3ccc(C)nc23)CC1` registered a z-score of 0.0178.
For `COCCNC(=S)NC1CC2CCCC(C1)N2Cc1cccs1` (configuration not stated) the value was -0.161; for `Cc1cc(NCCCn2ccnc2)n2nc(C)c(-c3ccccc3)c2n1`, -0.627.
For the molecule `COCc1cc(=O)[nH]c(SCC(=O)Nc2ccccc2)n1`, the z-score came out at 0.592.
In the case of `O=C(Cc1nn[nH]n1)NCCC1=CCCCC1` it was 0.328; in that of `Cc1cc(NC(=O)CSc2nnc(-c3ccccc3)n2Cc2ccco2)no1`, -0.599.
Take `COC(=O)c1ccc(CSc2nc(-c3ccc(OC)cc3)nc3c2c(=O)n(C)c(=O)n3C)o1`: the z-score is -0.0566.
For `CC(=O)Nc1ccc(OCC(O)CN2CCN(c3ccc(C)c(Cl)c3)CC2)cc1` (configuration not stated) the value was 0.331; for `Cc1c(Cl)cnc(NC(=O)COC(=O)c2ccc3ncsc3c2)c1Cl`, -0.0663; for `CCCCC(=O)Nc1cccc(NC(=S)NC(=O)COc2ccccc2Cl)c1`, 0.162.
In the case of `CCCCCC(=O)NNC(=O)Nc1ccccc1` it was 0.2; in that of `O=C1N(c2ccc(Cl)cc2)C(c2ccccc2)N2CCCN12` (configuration not stated), -0.0124; in that of `CCOC(NC(=O)c1ccccc1)C(NC(=O)c1ccccc1)OCC` (configuration not stated), -0.184.
Take `COc1ccc(NC(=O)COC(=O)c2ncc(Cl)c(Cl)c2Cl)c(OC)c1`: the z-score was -0.122.
For `O=C(NCc1cccnc1)c1ccc(S(=O)(=O)N2CCOCC2)cc1` the value was 0.181; for `O=C(Cn1nnc2ccccc21)OCC(=O)c1ccccc1`, -0.385.
For `COc1ccccc1NC(=O)c1nn(-c2cccc(C(F)(F)F)c2)ccc1=O` the value was -0.287; for `O=c1c2ccccc2c(C=Nc2cccc(O)c2)c(O)n1-c1ccc2c(c1)OCO2`, -0.281; for `O=C1Nc2ccccc2C12OCC1(CO2)COC2(OC1)C(=O)Nc1ccccc12` (configuration not stated), active: 3.45.
In the case of `CCN(CC)S(=O)(=O)c1ccc(C(=O)Nc2cc3oc4ccccc4c3cc2OC)cc1` it was -0.275.
`Cc1cc(NC(=O)COc2ncnc3sc(C)c(C)c23)no1`: the z-score was -0.395.
In the case of `C=CCn1c(SCC(=O)N2CCOCC2)nc2sc3c(c2c1=O)CCCC3` it was -0.745.
For `COc1ccccc1NC(=O)c1ccc(S(=O)(=O)N2CCCC2)cc1` the value was active: 3.99; for `O=C1N(O)C2(C=CCCC2)/C(=N\O)C12CCCCC2` (configuration not stated), -0.112.
In the case of `COc1cc(/C=C2/C(=O)NN(c3ccc(Cl)cc3)C2=O)ccc1OC(=O)c1ccco1` it was -0.835.
In turn, `COc1ccc(CCNS(=O)(=O)c2cccc3nsnc23)cc1OC` had a z-score of 0.233.
In the case of `C/C(=N\NC(=O)c1ccc(Cl)c(Cl)c1)c1ccc(Br)s1` it was 1.19; in that of `COc1ccc(NC(=S)NC(NC(=O)c2ccc(Cl)cc2Cl)C(Cl)(Cl)Cl)c([N+](=O)[O-])c1` (configuration not stated), -0.264; in that of `O=C(CCC1COc2ccccc2O1)Nc1ccccn1` (configuration not stated), -0.203.
In the case of `CC(C)OC(=O)c1ccc(S(N)(=O)=O)o1` it was -0.121; in that of `CCC(C)NC(=O)NC(=O)N(C1CCCCC1)S(C)(=O)=O` (configuration not stated), 0.407; in that of `O=C(Nc1ccc2nc(-c3ccc(Br)o3)[nH]c2c1)c1cccs1`, -0.969.
In the case of `CCOC(=O)c1c(CN2CCOCC2)n(C)c2cc(Br)c(O)c(CN(C)C)c12` it was -0.443 and -0.878; in that of `CC(C)(C)C(=O)Cn1ncc(N2CCCC2)c(Br)c1=O`, -0.119.
`O=C(Nc1ccccc1)OCCOc1ccccc1` had a z-score of 0.244.
For `CCOc1ccc(C2N(c3ccc(F)cc3)C(=O)C3CCCN32)cc1OC` (configuration not stated) the value was -0.445; for `COC(=O)c1ccc(Oc2c(C)oc3c(CN4CCN(C)CC4)c(O)ccc3c2=O)cc1`, -0.522; for `COCC(C)NC(=O)c1cccc(Cl)c1` (configuration not stated), 0.653.
For `CCOC(=O)CSc1nnc([C@H](C)NC(=O)OC(C)(C)C)o1` the value was 0.47; for `COc1ccc2sc3c(=O)[nH]c4ccccc4c3c2c1`, 0.853.
For `CCOc1ccccc1OCCOc1ccccc1OC(C)C` the value was -0.189; for `CCCn1c(=O)n(N)c2ccccc21`, -0.166.
In the case of `O=C(CSCc1ccccc1Br)N/N=C/c1ccc(OCC(=O)N2CCCCC2)cc1`, the z-score was -0.174.
In the case of `CCOC(=O)c1ccc(NS(=O)(=O)N2CCCCCC2)cc1`, the z-score is -0.322.
For the molecule `CCn1c(=O)c(C(=O)NCc2ccc(OC)cc2)c(O)c2ccccc21`, the z-score stood at 0.00466.
In the case of `CCC(=O)N1CCN(c2ccccc2NC(=O)Cc2ccccc2)CC1` it was -0.0127.
In the case of `CCC(c1nnnn1CCOC)N(Cc1cc2cc(C)c(C)cc2[nH]c1=O)CC1CCCO1` (configuration not stated) it was -0.47; in that of `CN(C)C(=S)SCC(=O)Nc1cccc(C(F)(F)F)c1`, -0.692; in that of `CCOC(=O)N1CCN(C(=O)c2ccc(CNS(=O)(=O)c3ccc(C)cc3)cc2)CC1`, -0.952.
For `CCOC(=O)CN1c2ccccc2NC(=O)CC1C` (configuration not stated) the value was -0.291; for `Cc1cc(-c2[nH]nc3c2C(c2ccsc2)C(C#N)=C(N)O3)c(C)s1` (configuration not stated), -1.78; for `O=C(/C=C/c1cccs1)Nc1ccncc1`, -0.142.
Regarding `CCOc1ccc(/C=C/C2=Cc3c(sc(NC(=O)CSc4n[nH]c(N)n4)c3C#N)C(C)(C)C2)cc1`, the z-score was -0.101.
As to `COC(=O)c1cc(NC(=O)Cn2c(=O)cnc3ccccc32)cc(C(=O)OC)c1`, the z-score came out at 0.381.
For `CCC(=O)N1CCN(c2nc(-c3ccccc3)c3c(c2C#N)CCCC3)CC1` the value was -2.34; for `O=c1c2c(nc3c(-c4ccccc4)c[nH]n13)CCCC2`, active: 3.66.
In the case of `CCN1CCN(C(=O)C2CCN(Cc3cc(Cl)ccc3O)CC2)CC1` it was -0.32; in that of `O=C(NCc1cccs1)C1CCCN(S(=O)(=O)c2cccs2)C1` (configuration not stated), 0.213; in that of `O=C(Cn1cnc2c(cnn2-c2ccccc2)c1=O)OCc1ccccc1`, 0.109.
In the case of `COc1ccc2[nH]c(C(=O)O)c(CCNC(C)=O)c2c1` it was 1.48; in that of `CCCCNS(=O)(=O)c1ccc(NC(=O)C2c3ccccc3Oc3ccccc32)cc1`, -0.165; in that of `COc1ccc(NC(=O)C2CCCN2S(=O)(=O)c2ccc(C)cc2)cc1` (configuration not stated), -1.04.
As for `Cc1c(Cl)cccc1NC(=S)NCc1ccc(Cl)cc1`, the z-score was -0.0301.
For `COC(=O)c1cc(Br)c(=O)n(CCN2CCOCC2)c1` the value was -0.36; for `Cc1ccc(NC(=S)Nc2nc(CC(=O)Nc3ccccc3)cs2)cc1`, 0.0541.
For `Cc1ccc(C(=O)ON=C2CCN(c3ccc([N+](=O)[O-])cc3)CC2)cc1` the value was -0.427; for `O=C(CS(=O)(=O)Cc1ccccc1)Nc1ncccn1`, 0.476.
For `O=C1c2ccccc2C(Nc2ccc(F)c(Cl)c2)N1Cc1ccco1` (configuration not stated), the z-score was -0.196.
In the case of `O=C(CCN1C(=O)c2ccccc2C1=O)OCN1C(=O)c2ccccc2C1=O` it was -0.0495; in that of `CC(=O)c1cccc(NC(=O)CC2SC(N3CCCCC3)=NC2=O)c1` (configuration not stated), -0.528.
For `Cc1sc(NC(=O)CN(Cc2ccc(F)cc2)C(=O)C(C)(C)C)c(C(N)=O)c1C` the value was 1.19.
For `COc1ccc(CNC(=O)c2cccc(N(C)C)c2)cc1` the value was -0.0149; for `CCOc1ccc2[nH]c(=O)c(CN(Cc3ccco3)Cc3nnnn3Cc3ccccc3)cc2c1`, -0.553.
Molecule `CCc1nc(N2CCCC2C(=O)O)c2oc3ccccc3c2n1` (configuration not stated) registered a z-score of 0.0587.
For `O=C(Nc1ccc(C(=O)N2CCCC2)cc1)Nc1ccc(Cl)cc1Cl` the value was -0.466; for `O=C(/C=C/c1cccc([N+](=O)[O-])c1)NC(=S)Nc1ccc(CN2CCOCC2)cc1`, -0.14.
For the molecule `CCOc1ccc(/C(O)=C2\C(=O)C(=O)N(CCN(C)C)C2c2cc(OC)ccc2OC)cc1Cl` (configuration not stated), the z-score worked out at 0.738.
For `CCOc1cc2c3c(c1)C1(C(=O)N3C(C)(C)CC2C)C(C#N)=C(N)N2C(=C1C#N)Nc1ccccc12` (configuration not stated) the value was -0.341; for `O=C(NCc1cccs1)C1CCCN(S(=O)(=O)c2ccc3c(c2)OCO3)C1` (configuration not stated), -0.181; for `CCCCCCC1CC(CCC(=O)Nc2ccc([N+](=O)[O-])cc2)C(=O)O1` (configuration not stated), -0.115.
On to `C/C(N)=C(/C#N)C(=O)CSc1cc(Cl)ccc1Cl`, for which the z-score is -0.112.
In the case of `COC(=O)c1nn(C23CC4CC(CC(C4)C2)C3)c2c1C(=O)N(c1ccc(F)cc1)C2=O` it was -0.0402; in that of `CCOC(=O)C1C(c2ccc3c(c2)OCO3)NC(=O)NC1(O)C(F)(F)F` (configuration not stated), 0.309.
